Experimental data as given in PubChem BioAssay AID1345082 (National Center for Advancing Translational Sciences (NCATS), 2018).
Values joined by “and” are separate entries in the source; they are usually repeats but may differ in a detail not shown here. Identical values can stand only once. The campaign covered roughly 94,000 compounds. About 4,000 (4.3%) were called active. This list was built around the results that the source calls inconclusive (neither active nor inactive); the mix of calls is not that of the screen. Calls follow the shape of the dose curve; as a rule, active = well fitted inhibition curve with a large enough effect; inconclusive = small, poorly fitted or top-dose-only effect; inactive = no such curve, though single readings can be large or run the other way. Potencies beside an inconclusive call are fits to weak or partial responses and may not hold up.

test: Cytotoxic Profiling in NIH 3T3 Cell Line of Diverse Libraries Using Quantitative High-Throughput Screening; conditions: NIH 3T3 viability, CellTiter-Glo ATP luminescence, 48-72 h; series mostly up to 96.7 µM; also: nearly all actives have a fitted effect of over 55% in size
Summary of the method: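 First NIH 3T3 cells are plated at 400 cells/well; next compound is pinned in; then plates incubate 48 or 72 hr at 37 °C; finally CellTiter-Glo is added and luminescence read after 10 min.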
Potency is read from the fitted curve at half-maximal effect; tags tell the direction and shape of the fitted curve.

SMILES | Potency
CN(C)CCN(C)C(=O)c1ccc2c(c1)NC(C)(COc1ccccc1)CO2 (stereo not drawn) | active: 89.1 µM
CN(C)C[C@@H]1CN(Cc2ccccn2)C[C@H]1NS(=O)(=O)c1cccc(C#N)c1 | inactive
COc1cccc(CNC(=O)C2CCN(C(=O)c3nnn4c3COC(c3ccc(C)cc3)C4)CC2)c1 (stereo not drawn) | inactive
Fc1ccc(CCC2CCCN(C3CCN(Cc4cccnc4)CC3)C2)cc1 (stereo not drawn) | inconclusive: 50.1 µM [inhibitor, partial curve, poor fit]
COc1ccccc1CNC(=O)c1c(OCC2CC2)cc(=O)n2c1CCCCC2 | inconclusive: 50.1 µM [inhibitor, partial curve, poor fit]
CCOC(=O)CN1C(=O)CCN(C(=O)CC(C)(C)C)CC(OC)c2ccccc21 (stereo not drawn) | inconclusive: 31.6 µM [inhibitor, partial curve, poor fit]
COC[C@H]1NC(=O)CC[C@H]1C(=O)NCc1ccccc1OC | inconclusive: 50.1 µM [inhibitor, partial curve, poor fit]
N#Cc1cccc(C(=O)Nc2ccc3c(N4CCOCC4)ncnc3c2)c1 | inconclusive: 50.1 µM [inhibitor, partial curve, poor fit]
Cc1nn2c(c1-c1ccccc1Oc1ccccc1)N(Cc1cccc(C(=O)O)c1)CCC2 | inconclusive: 56.2 µM [inhibitor, partial curve, poor fit]
COCCNC(=O)[C@@H]1C[C@@H](c2ccc(F)cc2)N([S+](=O)([O-])c2ccccc2)C1 | inconclusive: 112 µM [inhibitor, single point]
CO[C@H]1[C@H](NC(=O)Cc2cccnc2)c2ccccc2C12CCNCC2 | inconclusive: 100 µM [inhibitor, partial curve, poor fit]
COc1ccc(C(=O)N2C[C@@H](Oc3cccnc3)C[C@H]2C(=O)NC2CC2)c(OC)c1 | inactive
CN1CCC(N(C)C(=O)CCC[C@@H]2[C@H]3CCCN4CCC[C@@H](CN2Cc2ccccc2)[C@@H]34)CC1 | inconclusive: 31.6 µM [inhibitor, full curve]
O=C1CC(c2ccccc2)N(CC2CCCCC2)CCCCCCN1 (stereo not drawn) | inactive
Cc1cccc2[nH]c(CN(C)C(=O)c3ccc(CCC(C)(C)O)cc3)nc12 | inconclusive: 14.1 µM [inhibitor, full curve]
COCCNC(=O)c1cc(-c2cccc3[nH]ccc23)cc2ncn(C)c12 | inconclusive: 63.1 µM [inhibitor, partial curve, poor fit]
COCCOC1CCN(C(=O)c2cccc(OC)c2)CC1 | inactive
COCC(=O)NC[C@@H]1C=C(C)[C@H](CC(=O)N(C)Cc2ccccc2)C[C@H]1C(C)C | inconclusive: 28.2 µM [inhibitor, full curve, poor fit]
CC(C)c1noc(-c2cn(C3CCCN(C(=O)c4ccc(Cl)cc4)C3)nn2)n1 (stereo not drawn) | inconclusive: 44.7 µM [inhibitor, partial curve, poor fit]
CCN(CCNC(=O)c1cc2c(s1)CN(C1CC1)C2)c1cccc(C)c1 | inconclusive: 70.8 µM [inhibitor, partial curve, poor fit]
CCCN1CCc2[nH]cnc2C12CCN(C(=O)c1ccc(CSC)o1)CC2 | inactive

SMILES | Potency
CN1CCCn2nc(C(=O)N(C)Cc3cc(-c4cccs4)n[nH]3)cc2C1 | inactive
C=CCn1cc2c3c(cccc31)[C@H](CC(C)C)N[C@H](C(=O)NCc1ccccc1OC)C2 | active: 25.1 µM
Cc1noc(C)c1S(=O)(=O)N1CCC(Oc2ccc(-c3noc(C(C)C)n3)cc2)C1 (stereo not drawn) | inactive
CC(=O)N1CCC(c2nnc3n2C(C(=O)NCc2ccccc2F)CC3)CC1 (stereo not drawn) | inactive
Cc1noc(C)c1[S+](=O)([O-])NC1CCN(Cc2cccc(-c3cccs3)c2)CC1 | inconclusive: 50.1 µM [inhibitor, partial curve, poor fit] and active: 39.8 µM
O=C(Nc1ccc(Cl)cc1)N1CCC2(C1)C(=O)N(CCc1ccccc1)c1ccccc12 (stereo not drawn) | inconclusive: 22.4 µM [inhibitor, full curve] and inconclusive: 25.1 µM [inhibitor, full curve]
Cn1ccc2c(C(=O)NCc3cccnc3)nc(-c3ccc(F)cc3)cc21 | inconclusive: 56.2 µM [inhibitor, partial curve, poor fit]
CC1=C[C@@H](CNCCN(C)C)[C@H](C(C)C)C[C@H]1Cc1nnc(-c2ccc(C)cc2)o1 | active: 35.5 µM
O=C(CC[C@@H]1CNC(=O)[C@@H]2C[C@H](NS(=O)(=O)c3ccc(F)cc3)CN12)NCc1ccccc1 | inconclusive: 70.8 µM [inhibitor, single point]
CCC(=O)Nc1cccc(C2OC(=O)N(Cc3ccc(C)cc3)C2C(=O)Nc2ccc(F)cc2)c1 (stereo not drawn) | inconclusive: 44.7 µM [inhibitor, partial curve]
CCN1CCN(CCCNC(=O)CC2CCN(c3ccnc(NC)n3)CC2)CC1 | inactive
OC1CC(c2cc(N3CCc4c(Cl)cccc4C3)ncn2)C1 (stereo not drawn) | inconclusive: 28.2 µM [inhibitor, partial curve, poor fit]
CC(C)C(=O)Nc1ccc(C2(C(=O)N3CCN(c4ccccc4)CC3)CCCCC2)cc1 | inconclusive: 44.7 µM [inhibitor, partial curve, poor fit]
CC1=C[C@@H](CNC(=O)c2cccc(F)c2)[C@H](C(C)C)C[C@H]1CC(=O)NCc1cccnc1 | inconclusive: 50.1 µM [inhibitor, partial curve, poor fit]
Cc1ccccc1C(=O)N1CCC(C(=O)N2CCC(N3Cc4cccn4C3=O)CC2)CC1 | inactive
Cc1cc2cc(-c3c(C)noc3C)nc(N(C)CCN(C)C)c2o1 | inconclusive: 56.2 µM [inhibitor, partial curve, poor fit]
Cn1ncc2c(C(=O)Nc3ccc(F)cc3)cc(-c3cccc(F)c3)nc21 | inconclusive: 39.8 µM [inhibitor, partial curve, poor fit]
O=C1NCCCCCCN(Cc2ccncc2)[C@@H]2CN(S(=O)(=O)c3cccc(F)c3)CC[C@@H]12 | inactive
O=C(c1nc2cccnc2n(C2CC2)c1=O)N1CCN(C(=O)C2CCCC2)CC1 | inactive
Cc1nc2c(s1)C[C@@H]1[C@](C)(CO)[C@H](O)CC[C@@]1(C)[C@@H]2CC(=O)Nc1ccccc1 | inactive
FC(F)(F)c1cccc(-c2noc(-c3ccc(NCCN4CCOCC4)nc3)n2)c1 | inconclusive: 56.2 µM [inhibitor, partial curve, poor fit]

SMILES | Potency
Cc1ccccc1CN1Cc2nc(NCc3cccc(F)c3)ccc2OCC1=O | active: 79.4 µM
CC(=O)Nc1cccc(-c2ccc3c(n2)CN(Cc2nc4ccccc4s2)C(=O)CO3)c1 | inconclusive: 39.8 µM [inhibitor, partial curve, poor fit]
CC1(C(=O)N2C[C@@H](Oc3ccccc3)C[C@H]2C(=O)N2CCOCC2)CCCCC1 | inactive
COc1ccc(N2Cc3c(ncnc3N3CCC(Cc4ccccc4)CC3)N(C)CC2=O)cc1 | inconclusive: 44.7 µM [inhibitor, partial curve, poor fit]
O=C1CO[C@H]2CCN(Cc3ccc4c(c3)CCO4)CC[C@@H]2N1c1ccccc1 | inconclusive: 112 µM [inhibitor, single point]
O=C(CCC1CCN(C(=O)c2ccccc2)CC1)N1CCOCC1 | inactive
CCOc1cc(=O)n2c(c1C(=O)Nc1cc(Cl)ccc1OC)CCCC2 | inconclusive: 3.16 µM [inhibitor, full curve, poor fit]
O=C(CCc1ccccc1)N1CCC(N2CC3CC(C2)[C@H]2CCCC(=O)N2C3)CC1 (stereo partly drawn) | inactive
O=C(NC1CCCCCC1)c1nc2cccnc2n(C2CC2)c1=O | inactive
CNC(=O)[C@H]1C[C@H](Oc2ccccc2)CN1Cc1ccc(OC(F)(F)F)cc1 | inconclusive: 70.8 µM [inhibitor, single point]
Cc1cc(-c2cc3c(nc2-c2ccccc2)nc(C(=O)NC2CCN(C)CC2)n3C)ccn1 | active: 25.1 µM
CCCCCNC(=O)c1nc2cccnc2n(CCCC)c1=O | inconclusive: 79.4 µM [inhibitor, partial curve, poor fit]
O=[S+]1([O-])NCC2(CCN(Cc3cccc4ccccc34)C2)Nc2ccccc21 (stereo not drawn) | inconclusive: 50.1 µM [inhibitor, partial curve, poor fit]
CNC(=O)c1ccc(Cn2ccn3nc4c(c3c2=O)CCCC4)cc1 | inconclusive: 25.1 µM [inhibitor, partial curve, poor fit]
Cc1nnc2ccc(N3CCCC(NC(=O)c4ccccc4F)C3)nn12 (stereo not drawn) | inconclusive: 56.2 µM [inhibitor, partial curve, poor fit]
O=C(NCCc1ccc(F)cc1)C1CCN(Cc2ccccc2-c2ccccc2F)CC1 | active: 35.5 µM
O=C1CCCN1CC(=O)N1CC(Oc2ccccc2-c2nc(C3CC3)no2)C1 | inactive
COc1cccc(Nc2ccc3c(n2)C(C)(C(=O)NCC2CC2)CN(C)C3)c1 (stereo not drawn) | inconclusive: 79.4 µM [inhibitor, partial curve, poor fit]
Cn1cccc1C(=O)N1CC(n2cc(C(=O)N3CCOCC3)nn2)C1 | inactive
COc1ccc(C(=O)NC2CCCc3c2[nH]c2c(Cl)cccc32)cc1OC (stereo not drawn) | inconclusive: 35.5 µM [inhibitor, partial curve]
COC1CCN(C(=O)c2c(-c3cnn(C)c3NCc3cccnc3)noc2C)CC1 | inconclusive: 100 µM [inhibitor, single point]
